The other results are listed elsewhere or left out. At the low end of the ranking the order means little.

Among the data in publication PMC6212790 are binding signal values, retold here.

This experiment deals with T1, GST-Rok-C97-191 (UniProt O34857).
T1 sequence: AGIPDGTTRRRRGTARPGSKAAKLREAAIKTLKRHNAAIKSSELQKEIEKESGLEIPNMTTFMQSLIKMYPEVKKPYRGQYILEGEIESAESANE
Briefly: protein binding microarray.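 Further: rank score from −0.5 (least bound) to 0.5 (best bound).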 Conditions: Rok is a gene silencer of Bacillus subtilis; high values mean tight binding; most listed sequences are background and not binding sites; double strand, one strand shown.
As for AATGAATT, the binding signal turned out to be 0.251 E-score.

As to CGGCACAG, the binding signal is -0.13 E-score.

Sequence CGAACCCG returned a binding signal of -0.112 E-score.

CTAAGAGA registered a binding signal of -0.0124 E-score. On to AATCTGAC, for which the binding signal is -0.0891 E-score. CCTATCAC registered a binding signal of 8.72e-05 E-score.

In turn, AGTCAGCG came in with a binding signal of -0.0245 E-score. Then AACAGAAG, with 0.0489 E-score; and CCCTGTTC, with -0.306 E-score. Then AATGAGCT, with -0.18 E-score. For GCCTAGGA the value was -0.106 E-score. GCCGAGCA: the binding signal is -0.191 E-score.

In turn, CCCATTCC yielded a binding signal of -0.0523 E-score. Then CAGAGCAG, with -0.21 E-score. For GCAGAAGC the value was -0.209 E-score. For AAGCCCGA the value was -0.0721 E-score.

In the case of CATGTACC, the binding signal amounted to 0.227 E-score. Then AACGTGGC, with -0.0901 E-score; and GCCGCACC, with -0.283 E-score. For AGGGCGCC, the binding signal is -0.19 E-score. Then GTAGCGAC, with 0.111 E-score; and TCTTGCAA, with 0.083 E-score.

With CGTAGACC, the binding signal is -0.165 E-score. Then AACACCAG, with 0.034 E-score. For TAAACGGA the value was 0.00328 E-score. Then CAACACCG, with -0.114 E-score; and AGTCTGCC, with -0.283 E-score; and GCTCAAAA, with -0.0164 E-score.

Regarding AAACGAAT, the binding signal was 0.112 E-score. For AGGGCGAG the value was -0.216 E-score. For AGACTGAT the value was -0.044 E-score. The sequence CAAGGACA gave a binding signal of -0.144 E-score. Then CGAGCCGC, with -0.316 E-score. For AACATAAA, the binding signal was -0.0782 E-score. Then GCCCCACC, with -0.231 E-score; and AACATGAT, with 0.134 E-score.

Consider CAGGAGGA, for which the binding signal was -0.208 E-score. As to ACCTTCGA, the binding signal was -0.0758 E-score. For AGACTTCG the value was -0.246 E-score; for GGTAACAA, 0.0618 E-score; for ATATTCTG, 0.237 E-score. For TCCGAGAA the value was 0.0252 E-score. The sequence CCATCTCG yielded a binding signal of -0.00555 E-score. For GCGCGTTA the value was -0.0591 E-score; for CTGCCCGC, -0.0908 E-score; for CTGGAGTA, -0.086 E-score. The sequence GGCGTGCA registered a binding signal of -0.127 E-score. Then CGTCCGAC, with -0.15 E-score; and GTTGGACA, with -0.19 E-score. Then AGATATTA, with 0.356 E-score. For AATGTTCC the value was 0.00825 E-score. In turn, ATCAGGGG displayed a binding signal of -0.0773 E-score. For AGCGCACA the value was -0.0886 E-score; for GATACTGC, 0.0173 E-score; for AACCACGA, -0.00899 E-score. For CTTCGAGA the value was -0.0153 E-score; for CTACCAAG, -0.0332 E-score; for AGGAGGTC, -0.283 E-score. For ACCTGTTA the value was 0.00671 E-score; for ATTTTCTG, -0.0553 E-score. Sequence AGGCCATG registered a binding signal of -0.274 E-score. For ATGAGTCC the value was -0.158 E-score; for GACCCTAC, -0.133 E-score.

For the sequence GTCATATA, the binding signal is 0.127 E-score.

Turning to ATTCGGGC, the binding signal is -0.048 E-score. Then ATTCAGAC, with -0.229 E-score. For GCACAGCC the value was -0.177 E-score; for CTTTTCGA, 0.0799 E-score; for CTTCATAC, 0.0668 E-score.

Sequence GGGGCTTA gave a binding signal of -0.195 E-score. Then CATCGGAG, with -0.0956 E-score; and CTTTGTGA, with -0.0126 E-score. Then ATGAAACA, with 0.155 E-score; and ACTATTCT, with 0.217 E-score.

For the sequence ATCTTCAA, the binding signal was determined as 0.18 E-score. Then CGACAACC, with -0.054 E-score; and CGGCTACG, with -0.0747 E-score.

CTCAATTC registered a binding signal of -0.0794 E-score. In turn, TCAATCCA yielded a binding signal of 0.0652 E-score. For GACCCGAA the value was -0.174 E-score.

In turn, GTCCTAAA showed a binding signal of -0.0241 E-score.

Sequence AAGGCAAG gave a binding signal of -0.265 E-score. For AAGTTAAG the value was -0.104 E-score; for AACCTATT, 0.276 E-score; for AATCATTA, 0.164 E-score. For ATTGTCCG the value was -0.0512 E-score.

In the case of ACGCTGTA, the binding signal is 0.0711 E-score. On to AAGGCAGG, for which the binding signal is -0.151 E-score. For ATATACTG the value was 0.365 E-score; for CAGTTCTC, -0.0141 E-score; for GGCAAATA, 0.171 E-score. Then CGTGCGAG, with -0.0807 E-score. For ATAACCGA the value was 0.02 E-score; for CGTTCGTA, 0.0383 E-score.

Take ATCCATTA: the binding signal was found to be 0.0903 E-score.

Sequence CTAAGCGA had a binding signal of -0.171 E-score. For GATCTCCA the value was -0.0449 E-score. The sequence TCAAGGGA returned a binding signal of 0.102 E-score. Then AATCACTG, with -0.0295 E-score. CGTGATCC showed a binding signal of -0.0857 E-score. Then CCATCGTC, with -0.109 E-score; and ATAGGACG, with 0.00789 E-score; and CTGGAATC, with -0.0329 E-score. AACTCACG yielded a binding signal of 0.12 E-score.

On to AGCCCCTC, for which the binding signal is -0.272 E-score. For GAGGGGAC the value was -0.243 E-score. In turn, AGCTCAAT yielded a binding signal of 0.00857 E-score. Then AATCCGGG, with -0.14 E-score; and TCTCTGCA, with -0.104 E-score. Then GACATGGA, with -0.0277 E-score. Then GGGCGGAA, with -0.213 E-score; and TTTGCAAA, with 0.141 E-score; and CCGGTCCC, with -0.243 E-score. Turning to TGCATCAA, the binding signal is 0.0866 E-score.

In the case of GCTCCTAC, the binding signal is -0.156 E-score. On to CCTGTTGA, for which the binding signal worked out at 0.0932 E-score. For CGCGGCAA the value was 0.0901 E-score. Then GCATGAAA, with -0.0052 E-score. In turn, TAAGACAA had a binding signal of -0.0918 E-score.

TACTAGAA displayed a binding signal of 0.348 E-score. Then GGAGCCAC, with -0.209 E-score; and AATCCCTA, with 0.0763 E-score. In turn, ACAGGCCT returned a binding signal of -0.287 E-score. Then CCGATAGA, with 0.198 E-score; and CCAGTTGA, with -0.091 E-score. Then CTAGATAG, with 0.324 E-score. Then CAACCGAC, with -0.206 E-score; and AACAGCCA, with -0.134 E-score. Take ATTGAACC: the binding signal was -0.0128 E-score.

GGCTACCC: the binding signal was -0.247 E-score. Then CCAGCGCC, with -0.356 E-score; and CTGTTAGC, with 0.176 E-score; and TATGTGCA, with 0.0361 E-score. Then ACTCGTGA, with -0.0468 E-score; and ACAGCCCC, with -0.247 E-score; and ACAATACC, with 0.0831 E-score. As to AGCTGATG, the binding signal was -0.00908 E-score. Then GGTTAAAC, with 0.102 E-score; and AGACTCCA, with -0.176 E-score; and AGTCTAAA, with 0.0248 E-score. For AGGGTAAC the value was -0.119 E-score; for CAATCTGC, 0.0189 E-score. Then TCTGGTAA, with 0.245 E-score; and ATGCTCAA, with -0.0151 E-score. AGAGACAA gave a binding signal of -0.0936 E-score. Take CAGATAAA: the binding signal turned out to be 0.112 E-score. Regarding TACTAGCA, the binding signal is 0.256 E-score.

In the case of ATTTCCGA, the binding signal was 0.00267 E-score.

AGTCTCAT displayed a binding signal of -0.16 E-score.

AGCGGATG: the binding signal was -0.0347 E-score.

In turn, AAAAGTTG had a binding signal of 0.104 E-score. Then TGGCGCAA, with -0.11 E-score; and ATTGAACG, with 0.102 E-score. Then AGGGATTG, with -0.0819 E-score. Then AGTTACCC, with 0.243 E-score. In the case of AGTGTCGG, the binding signal was determined as 0.0975 E-score. Then ATAATATC, with 0.209 E-score; and CAGGTCGC, with -0.118 E-score. Then ACCATGTA, with 0.282 E-score.

Consider GATTTTGA, for which the binding signal stood at 0.00182 E-score. Consider GCCGACGA, for which the binding signal was -0.261 E-score. For AGCACAGC the value was -0.089 E-score; for AATATTGT, 0.372 E-score.

As for GGGTACCA, the binding signal is -0.134 E-score. Then CCTTCTAG, with 0.0722 E-score. For AAGACATT the value was -0.0608 E-score. The sequence CGTGTAAA showed a binding signal of 0.00822 E-score. Then CGATTAGC, with 0.097 E-score; and CAGCCCTA, with -0.133 E-score; and AAGGTCAT, with -0.0255 E-score.

ATGCGCAC gave a binding signal of -0.0981 E-score. Then CAGAAAAC, with 0.0277 E-score.
